The labels stand for the following.
B1: CPEB3 Ribozyme (parent)
chain: UAACAGGGGGCCACAGCAGAAGCGUUCACGUCGCAGCCCCUGUCAGAUUCUGGUGAAUCUGCGAAUUCUGCUGUAUAUCUC

Among the data in the RNAGym collection of RNA variant scans (doi:10.1093/nar/gkz1192) are self-cleavage values, retold here.

The source gives no read counts; variants with many changes may rest on few reads.

The variants in the data set derive from B1. The data set is described as follows: self-cleavage, relative activity (ratio to wild type); higher = more cleavage; in vitro, sequencing. In outline:
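CPEB3 self-cleaving ribozyme mutant libraries were made by rounds of error-prone PCR, barcoded, and transcribed in vitro with T7 RNA polymerase for 5 hours at 37°C. Cleavage occurred during transcription and a 15 min DNase I step before EDTA stop. RNAs were reverse transcribed with template switching and Illumina-sequenced, with DNA sequencing mapping barcodes to variants. Relative activity is the variant's cleaved/total read fraction divided by wild type's (minimum 5 reads), averaged across three batches.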
Turning to UAACGGGGGGCCACAGCAGGAGCGUUCACGUGGCAGCCUCUGUCAGAUUCUGGUGAACCUGCGAAUUCUGCUGUAAGUCUC, the self-cleavage came to 0.1. Turning to UAACGGGGGGCCACAGCUGAAGCGUUCACGUAGCAGCCCCUGUCAGAUUCUGGUGAAUCUGCGAAUUCUGCUGUAUAUCUC, the self-cleavage amounted to 0.3. UAACGGGGGGCCACAGCUGGAGCGUUCACGUCGCAGCCCCUGUCAGAUUCUGGUGAAUCUGCGAAUUCUGCUGUAUAUCUC: the self-cleavage was determined as 0.79.

As to UAACGGGGGGCCACAGCUGAAGCGUACACGCCGCAGCCCCUGUCAGAUCCUGGUGAAUCCGCGAAUUCUGCUGUAUAUCUC, the self-cleavage was determined as 0.07. Regarding UAACGGGGGGCCACAGCUGAAGCGUUCACGACGCAGCCCCUGUCAGAUUCGGGUGUAUCUGCGAAUUCUGCUGUAUAUCUC, the self-cleavage stood at 0.29. Turning to UAACGGGGGGCCACAGCAGGAGCGUUCCCGUCGCAGCCCCUGUCAGAUUCUAGUGAAUCUGCGAAUUCUGCUGUAUAUCUC, the self-cleavage was 0.38. In the case of UAACGGGGGGCCACAGCGGAAGCGUUCACGUCGCAGCCCCUGUCAGAUUCUGGUGAAUCUGCGAAAUCUGCAGUAUAUCUC, the self-cleavage is 0.29.

On to UAACGGGGGGCCACAGCUGGAGCGUUCACGUCGCAGCCCCUGUCAGAUUCUGGUGAGUCUGCGAAUUCUGCUGUAUAUCUC, for which the self-cleavage was found to be 0.39. As for UAACGGGGGGCCACAGCAGGAGCGUUCACGUCGCUGCCCCUGUCAGAUUCUGGUGAAUCUGCGAAUUCUGCUGUACAUCUC, the figure is 0.16; as for UAACGGGGGGCCACAGCAGGAGCGUUCACGUCGCAGCGCCUGUCAGAUUCCGGUGAAUCUGCGAAUUCUGCCGUAUAUCUC, 0.09.

Turning to UAACGGGGGGCCACAGCGGAAGCGUCCACGUCGCAGCCCCUGUCAGGUUCUGGUGAAUCUGCGAAUUCUGCUGUAUAUCUC, the self-cleavage was found to be 0.6.

As to UAACGGGGGGCCACAGCUGAAGCGUUCGCGUCGCAGCCCCUGUCAGAUUCUGGUGAAUCUGCGGAUUCGGCUGUAUAUCCC, the self-cleavage was 0.06. Turning to UAACGGGGGGCCACAGCGGAAGCGUACGCGUCGCAGCCCCUGUCAGAUUCUGGUGGAUCUGUGAAUUCUGCUGUAUACCUC, the self-cleavage stood at 0.06.

Regarding UAACGGGGGGCCACAGCGGAAGCGUUCACGUCGCAGCCCCUGUCAGGUUCUGGUGAGUCUGCGAAUUCUGCUGUAUAUCUC, the self-cleavage stood at 0.44. As for UAACGGGGGGCCACAGCUGAAGCGUUCACGUCGCAGCUCCUGUCAGAUACUGGUGAAUCUGCGAGUUCUGCUGUAUAUCUC, the figure is 0.08; as for UAACGGGGGGCCACAGCUGAAGCGUUCGCGGCGCAGCCCCUGUCAGAUUCUGGCGAAUCUGCGAAUUCUGCCGUAUACCUC, 0.07; as for UAACGGGGGGCCACAGCGGAAGCGUUCACGUCGCAGCCCCUGCCAGACUCUGGUGAACCUGCGAAUUCUGCUGUAUAUCUC, 0.19. Regarding UAACGGGGGGCCACAGCGGAAGCGUUCACGUCGCUGCCCCUGUCAGAUUCCGGUGGAUCUGCGAAUUCUGCUGUAUGUCUC, the self-cleavage was 0.08. As for UAACGGGGGGCCACAGCAGGAGCGUUCAAGUCGCAGCCCCUGUCAGAUUCUGGUGAAUCUGCGAAUUCUGCUGUAUAUCUC, the figure is 0.09. In the case of UAACGGGGGGCCACAGCAGGAGCGUUCGCGUCGCAGCCCCCGACAGAUUCUGGUGAAUCUGCGAAUUCUGCUGUAUAUCUC, the self-cleavage is 0.5.

For UAACGGGGGGCCACAGCAGGAGCAUUCGCGCCGCAGCCCCCGUCAGAUUCUGGUGAAUCUGCGAAUACUGCUGUAUAUCUC, the self-cleavage was found to be 0.24.

UAACGGGGGGCCACAGCGGAAGCGUUCACGUCGCAGCCCCUACCAGAUUCUGGUGAAUCUGCGAAUUCUUCUGUAUAUCUC: the self-cleavage turned out to be 0.07.

For UAACGGGGGGCCACAGCAGGGGCGUUCACGUCGCAGCCCCUGUCAGAUUCUGGUGGAUCCCCGAAUUCUGCUGUAUAUCUC, the self-cleavage stood at 0.06. As to UAACGGGGGGCCACAGCGGAAGCGUUCACGUCGCAGCCCCUGUCAGAUUCUGGUGAUCCUGCGCAUUCUGCUGUAUACCUC, the self-cleavage was found to be 0.1. On to UAACGGGGGGCCACAGCAGGAACAUACACGUCGCAGCCCCAGUCAGAUUCUGGUGAGUCUGCGAAUUCUGCUGUAUAUCUC, for which the self-cleavage came to 0.08. As for UAACGGGGGGCCACAGCAGGAGCGUUCACGUCGCAGCCGCUGUCAGAUUCUGGUGAAUCCGCGAAUUCUGCUGUAUAUCUC, the figure is 0.33; as for UAACGGGGGGCCACAGCUUAAGCGUUCGCGUCGUAGCCCCUGUCGGAUUCUGGUGAAUCUGCGAAUUCUGCUGUAUAUCUC, 0.05; as for UAACGGGGGGCCACAGCAGGAGCGUUCACGUCGCUGCCCCUGUCAGAUUCUGGUGAAUCUGCGAAUCCUGCUGUAUAUCUC, 0.61. With UAACGGGGGGCCACAGCAGGGGCGCUCACGUCGCAGCCCCUGUCAGAUUCUGGUGAAUCUGCGAGUUCUGCUGUAUAUCUC, the self-cleavage worked out at 0.51.

With UAACGGGGGGCCACAGCAGGAGCGUUCACGUCGCAGCCCCUGUCGGAUUCUGGUGAUUCUGCGAACUCUGCAGUAUAUCUC, the self-cleavage worked out at 0.08. For the variant UAACGGGGGGCCACAGCGGAAGCGUUCACGUCGCAGCCCCUGUCAGAUUACGGUGAAUCUGCGAAUUCAGCUGUAUAUCUC, the self-cleavage came to 0.32. As to UAACGGGGGGCCACAGCGGAAGCGUUCACGUCGCAGCCCCAGUCAGAUUCUGGUGAAUCUGCGAAUUCUGCGGUAUAUCUC, the self-cleavage stood at 0.14. With UAACGGGGGGCCACAGCGGAAGCGUUCACGUCGCAGCCCCUGUCAGAUUCUGGUGAAUCUGCGAAUUCUGCUGUAUACCUC, the self-cleavage was 0.33. As for UAACGGGGGGCCACAGCAGGAGCGUUCACGUCGCAGCCCCUGUCAGAUCCAGGUGAAUCUGCGAGCUCUGCAGUAUAUCUC, the figure is 0.14; as for UAACGGGGGGCCACAGCAGGAGCGUUCACGUCGCAGCCCCAGUCAGAUUCUGGUGAAUCUGCGUAUUCUGCUGUAUACCUC, 0.04; as for UAACGGGGGGCCACAGCUGAAGCGUUCUCGUCGCAGCCCCUGCCAGAUUCUGGUGAAUCUGCGAAUUCUGCUGUACAUCUC, 0.1. Take UAACGGGGGGCCACAGCAGGAGCGUUCACGUCGCAGCCCCAGUCAGAUCCUGGUGAGUCUGCGUAUUCUGCUGUAUAUCUC: the self-cleavage came to 0.06.

As for UAACGGGGGGCCACAGCUGAAGCGUUCACGUCGCAGCCCCAAUCAGAUUCUGGUGAAUCUGCGAAUUCUGCUGUAUAUCUC, the self-cleavage worked out at 0.05. As for UAACGGGGGGCCACAGCAGGAGCGUUCACGUCGCAGCCCCUGUCAGAUUCUGGUGAAUCUGCCGAUUCUGCUGUAUAUCCC, the figure is 0.31; as for UAACGGGGGGCCACAGCGGAAGCGUUCACGUCGCAGCCCCUGUCAGAUUCUGGUGAAUCUGCGAACUCUGCUGUAUAUCGC, 0.16.

As to UAACGGGGGGCCACAGCAGGAGCGUUCCCGUCGCAGCCCCUGUCAGAUUCAGGUUAAUCUGCGAAUUCUGCCGUAUAUCUC, the self-cleavage was 0.06. Take UAACGGGGGGCCACAGCUGAAGCGUUCACGUCGCAGCCCCUGACAGAUUCUGGUGAAUCUGCGAAUUCUGCUGUAUAUCUC: the self-cleavage was 0.53. Take UAACGGGGGGCCACAGCUGAAGCGUUCACGUCGCAGCCCCUGUCAGAUUCUGGUGAAUCUGCGAAUUCAGCUGUACAUCUC: the self-cleavage came out at 0.85. Consider UAACGGGGGGCCACAGCAGGAGCGUUCACGUCGCAGCCCCCGACAGGUCCUGGUGAAUCUGCGAACUCUGCUGUAUAUCUC, for which the self-cleavage was 0.3. With UAACGGGGGGCCACAGCAGGAGCGUUCACGUCGCAGCCCCUGUCAGAUUCUGGUGAAUCUGCGAAUUCUGUUGUAUAUCUC, the self-cleavage was 0.22. Turning to UAACGGGGGGCCACAGCGGAAGCCUUCACGUCGCAGCCCCUGUCAGAUUCAGGUGAAUCUGCGAAUUCUGCUGUAUAUCUC, the self-cleavage turned out to be 0.28. With UAACGGGGGGCCACAGCAGGAGCGUUCACGUCGCCGCCCCUGUCAGAUUCUGGUGGAUCUGCGAAUUCUGCUGUAUACCUC, the self-cleavage came out at 0.15. Regarding UAACGGGGGGCCACAGCAGGAGCGUUCACGUCGCAGCCCCUGUCAGAUCCUGGUGGAUCUGCGAAUUCAGCUGUAUAUCUC, the self-cleavage was 0.18. As for UAACGGGGGGCCACAGCUGGAGCGUUCACGUCGCAGCCCCCGUCAGAUUCUGGUGAGUCUGCGAAUUCUGCUGUAUAUCUC, the figure is 0.3; as for UAACGGGGGGCCACAGCGGAAGCGUUCACGUCGCAGCCCCUGUCAGAUUCUGGUGAGUCUGCGAAUUCUGCAGUAUAACUC, 0.28; as for UAACGGGGGGCCACAGCAGGAGCGUUCACGUCGCAGCCCCUGUCAGAUUCUGGCGAAUCUGCGAAUUCUGCUGUAUAUCUC, 0.58. For the variant UAACGGGGGGCCACAGCGGAAGCGUUCACGUCGCAGCCCCUGUCAGAUUCAGGCGAGUCUGCGAAUUCUGCUGUAUAUCUC, the self-cleavage came out at 0.32. Regarding UAACGGGGGGCCACAGCUGAAGCGUCCACGUCGCAGCCCCUGUCAGAUUCGGGUGAAUCUGCGAAUUCUGCUGUAUUUCUC, the self-cleavage is 0.12. As to UAACGGGGGGCCACAGCUGAAGCGUUCACGUCGCAGCCCCUGUCAGAUUCUGGUGAAGCAGCGAAUUCUGCUGUAUAUCUC, the self-cleavage came to 0.09. Turning to UAACGGGGGGCCACAGCAGGAGCGUUCGCGUCGCAGCUCCUGCCAGAUCCUGGAGAAUCUGCGAAUUCUGCUGUAUAUCUC, the self-cleavage came to 0.03.

UAACGGGGGGCCACAGCUGAAGCGUACAGGCCGCAGCCCCCGUCAGAUUCUGGAGAAUCUGCGAAUUCUGCUGUAUAUCUC: the self-cleavage worked out at 0.03. Turning to UAACGGGGGGCCACAGCGGAAGUGCUCACGUCGCAGCCCCUGUCAGAUUCUGGUGAAUCUGCGGAUUCUGCUGUAUAUCUC, the self-cleavage was 0.22.

Turning to UAACGGGGGGCCACAGCUGAAGCGUCCACGUCGCAGCCCCUGUCAGAUUCUGGUGAAUCUGCGUAUUCCGCUGUAUAUCUC, the self-cleavage was 0.21.

On to UAACGGGGGGCCACAGCAGGAGCGUUCACAUCGCAGCCCCUGUCAGAUUCUGGUGAACCAGCGAAUUCUGCUGUAUAUCUC, for which the self-cleavage came out at 0.12. As for UAACGGGGGGCCACAGCUGAAGCGUUCGCGUCGCAGCCCCUGUCAGAUUCUGGUGAACCUGCGAAUUCUGCUGUAUAUCUC, the figure is 0.09; as for UAACGGGGGGCCACAGCGGAAGCGUUCACGUCGCAGCCCCUGUCAGAUUCUGGAGAAUCUGCGAAUUCUGCUGUAUAUCUC, 0.85; as for UAACGGGGGGCCACAGCUGAAGCGUUCACGUCGCAGCCCCUGUCGGAUUCCGGUGAAUCUGCGAAUUCUGCUGUAUAUCUC, 0.29. With UAACGGGGGGCCACAGCAGGAGCGUUCACGUCGCAGCCCCUGUCAGAUUCUGGUGAAUCUGCGAAUUCUGCUGUUUAUCUC, the self-cleavage was 0.95. As for UAACGGGGGGCCACAGCAGGAGCGUUCACAUCGCAGCCCCUGCCAGAUACUGGUGAAUCUGCGAAUUCUGCUGUAUAUCUC, the self-cleavage amounted to 0.36. On to UAACGGGGGGCCACAGCUGAAGCGUCCACGUCGCAGCCCCAGUCAGAUUCAGGUGAAUCUGCGAAUUCUGCUGUAUAUCUC, for which the self-cleavage is 0.11. As for UAACGGGGGGCCACAGCAGGAGCGUACGCGUCGCAGCCCCUGUCAGAUUCUUGUGAAUCUGCGAAUUCAGCUGUAUAUCUC, the figure is 0.06; as for UAACGGGGGGCCACAGCGGAAGCGUUCACGUCGCAGCCCCUGUCAGAUUCUGGUGAAUCUGCGAACUCUGCUGUAUAUCUC, 0.24. Turning to UAACGGGGGGCCACAGCAGGAGCGUUCACGUCGCAGCCCCUGUCAGAGUCUGGUGAAUCUGCGAAUUCUGCUGUAUAUCUC, the self-cleavage was found to be 0.27.
